From the RNAGym collection of RNA variant scans (doi:10.1101/gad.245936.114)
Variants at the background level are over-represented here.

B1: tRNA (parent)
chain: CUCUCGGUAGCCAAGUUGGUUUAAGGCGCAAGACUUUAAUUUAUCACUACGAAAUCUUGAGAUCGGGCGUUCGACUCGCCCCCGGGAGAUUUUUUCCUCGAGCAA

Variants of: B1
Assay: nonsense suppression (GFP-seq) (ratio to wild type); higher = more function; SUP4oc tRNA, yeast GFP reporter sort-seq
In short: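 Yeast carrying genome-integrated SUP4oc tRNA variants from a library with ~3% random mutations were grown in raffinose/galactose medium with 80 mg/L adenine. Each strain also carried a galactose-driven GFP ochre reporter and RFP. Cells were sorted into GFP/RFP bins, and each bin was Illumina-sequenced (phred ≥30). Nonsense suppression (GFPSEQ) is the bin median GFP/RFP, weighted by each variant's estimated cell share per bin, relative to wild-type SUP4oc; variants needed ≥100 reads and ≥30 cells.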

Row | Variant | nonsense suppression
1 | CUCUAGGUAGCCAAGUUGGUUUAAGGCGCAAGACUUUAAUUUAUCACUACGAAAUCUUGAGAUCGGGCGUUCGACUCUCCCCCGGGAGAUUUUUUCCUCGAGCAA [C5A G78U] | 0.0303
2 | CUCUAGGCAGCCAACUUGGUUUAAGGCGCAAGACUUUAAUUUAUCACUACGAAAUCUUGCGAUCGGGCGUUCGACUCGCCCCCGGGAGAUUUUUUCCUCGAGCAA [C5A U8C G15C A60C] | ≤ 0.026
3 | CUCUAGGGAGCCAUGUUGGUUUAAGGCGCAAGACUUUAAUUUAUCACUACGAAAUCUUGAGAUCGGGCGUUCGACUCGCCCCCGGAAGGUUUUUUCCUCGAGCAA [C5A U8G A14U G86A A89G] | ≤ 0.026
4 | CUCUAGGUAGCCAAGAUGGUUUAAGGCGCAAGACUUUAAUUUAUCACUACGAAAUCUUGAGUUCGGGCGUCCAACUCGCCCCCGGGAGAUUUUUUCCUCGAGCAA [C5A U16A A62U U71C G73A] | ≤ 0.026
5 | CUCUAGGUAGCCAAGCUGGUUUAAGGCGCAAGACUUUAAUUUAUCACUACGAAAUCUUGAGAUCGGGCGUUCGACUCGCCCCCGGGAGAUUUUUUCCUCGAGCAA [C5A U16C] | ≤ 0.026
6 | CUCUAGGUAGCCAAGCUGGUUUAAGGCGCAAGACUUUAAUUUAUCACUACGAAAUCUUGAGAUCGGGCGUUCGACUCGCCCCCGCGAGCUUUUUUCCUCGAGCAA [C5A U16C G85C A89C] | ≤ 0.026
7 | CUCUAGGUAGCCAAGGUGGUUUAAGGAGCAAGACUUUAAUUUAUCACUACGAAAUCUUGAGAUCCGGCGUUCGACUCGCCCCCGGUAGAUUUUUUCCUCGAGCAA [C5A U16G C27A G65C G86U] | ≤ 0.026
8 | CUCUAGGUAGCCAAGGUGGUUUAAGGCGCAAGACUUUAAUUUAUCACUACGAAAUCUUGAGAUCGGGCGUUCGACUCGCCCCCGGGAUAUUUUUUCCUCGAGCAA [C5A U16G G88U] | ≤ 0.026
9 | CUCUAGGUAGCCAAGGUGGUUUAAGGCGCAAGACUUUAAUUUAUCACUACGAAACCUUGAGAUCGGGCGUGCGACUCGCCCCGGGGAGAUUUUUUCCUCGAGCAA [C5A U16G U55C U71G C83G] | ≤ 0.026
10 | CUCUAGGUAGCCAAGUUGGUCUAAGGCGCAAGAAUUUAAUUUAUCACUACGAAAUCUUGAGAUCGGGCGUUCGACUCGCCCCCGGGAGAUUUUUUCCUCGAGCAA [C5A U21C C34A] | ≤ 0.026
11 | CUCUAGGUAGCCAAGUUGGUCUAAGGCGCAAGAUUUUAAUUUAUCACUACGAAAUCUUUAGAUCGGGCGUUCGACUCGCGCCCGGGAGAUUUUUUCCUCGAGCAA [C5A U21C C34U G59U C80G] | ≤ 0.026
12 | CUCUAGGUAGCCAAGUUGGUGUAAGGCGCAAGACUUUAAUUUAUCACUACGAAAUUUUGAGAUCGGGCGUUCGACUCGCCCACGGGAGAUUUUUUCCUCGAGCAA [C5A U21G C56U C82A] | ≤ 0.026
13 | CUCUAGGUAGCCAAGUUGGUUUAAGGCGCAAGACUUUAAUUUAUCACUACGAAAAUUUGAGAUCGGGCGUUCGACUCGCCCCCGGGAGAUUUUUUCCUCGAGCAA [C5A U55A C56U] | ≤ 0.026
14 | CUCUAGGUAGCCAAGUUGGUUUAAGGCGCAAGACUUUAAUUUAUCACUACGAAACCUUGAGAUCGGGCGUUCGACUCGCCCCCGGGAGGUUUUUUCCUCGAGCAA [C5A U55C A89G] | ≤ 0.026
15 | CUCUAGGUAGCCAAGUUGGUUUAAGGCGCAAGACUUUAAUUUAUCACUACGAAACCUUUGGAUCGGGCGUUCGACUCGCCCUCGGGAGAUUUUUUCCUCGAGCAA [C5A U55C G59U A60G C82U] | ≤ 0.026
16 | CUCUAGGUAGCCAAGUUGGUUUAAGGCGCAAGACUUUAAUUUAUCACUACGAAAGCUUGAGAUCGGGCGUUCGACUCGCCACCGGGAAAUUUUUUCCUCGAGCAA [C5A U55G C81A G88A] | ≤ 0.026
17 | CUCUAGGUAGCCAAGUUGGUUUAAGGCGCAAGACUUUAAUUUAUCACUACGAAAUCGUGAGAUCGGGCGUUCGACUCGCCCCCGGGAGAUUUUUUCCUCGAGCAA [C5A U57G] | ≤ 0.026
18 | CUCUAGGUAGCCAAGUUGGUUUAAGGCGCAAGACUUUAAUUUAUCACUACGAAAUCUAGAGAUCGGGCGUUCGACUCGCCCCCGGGAGAUUUUUUCCUCGAGCAA [C5A U58A] | ≤ 0.026
19 | CUCUAGGUAGCCAAGUUGGUUUAAGGCGCAAGACUUUAAUUUAUCACUACGAAAUCUAGAGAUCGGGCGUUCGACUCCCCCCCGGGAGAUUUUUUCCUCGAGCAA [C5A U58A G78C] | ≤ 0.026
20 | CUCUAGGUAGCCAAGUUGGUUUAAGGCGCAAGACUUUAAUUUAUCACUACGAAAUCUUGAGAUCGGGCGCUCGACUCGCCCCCGGGAGAUUUUUUCCUCGAGCAA [C5A U70C] | ≤ 0.026
21 | CUCUAGGUAGCCAAGUUGGUUUAAGGCGCAAGACUUUAAUUUAUCACUACGAAAUCUUGAGAUCGGGCGUACGACUCGCCCCCGGGAGAUUUUUUCCUCGAGCAA [C5A U71A] | ≤ 0.026
22 | CUCUAGGUAGCCAAGUUGGUUUAAGGCGCAAGACUUUAAUUUAUCACUACGAAAUCUUGAGAUCGGGCGUUCGACACGCCCCCGGGAGAUUUUUUCCUCGAGCAA [C5A U76A] | ≤ 0.026
23 | CUCUGGGUGGCCAAGUUGGUUUAAGGCGCAAGACUUUAAUUUAUCACUACGAAAUCUUGAGAUCGGGCGUUCGAGUCGCCCCCGGGAGAUUUUUUCCUCGAGCAA [C5G A9G C75G] | ≤ 0.026
24 | CUCUGGGUUGACAAGUUGGUUUAAGGCGCAAGACUUUAAUUUAUCACUACGAAAUCUUGAGAUCGGGCGUUCGACUCGCCCCCGGGAGAUUUUUUCCUCGAGCAA [C5G A9U C11A] | ≤ 0.026
25 | CUCUGGGUAGCCCUGUUGGUUUAAGGCGCAAGACUUUAAUUUAUCACUACGAAAUCUUGAGCUCGGGCGUUCGACUCGCCCCCGGGAGAUUUUUUCCUCGAGCAA [C5G A13C A14U A62C] | ≤ 0.026
26 | CUCUGGGUAGCCCAGUUGGUUUAACGCGCAAGACUUUAAUUUAUCACUACGAAAUCCUGAGAUCGGGCGUUCGACUCGCCCCCGGGAGAUUUUUUCCUCGAGCAA [C5G A13C G25C U57C] | ≤ 0.026
27 | CUCUGGGUAGCCGUGUUGGUUUAAGGCGCAAGGCUUUAAUUUAUCACUACGAAAUCUUGAGAUCGGGCGUUCGACUCGCCCCCGGGAGAUUUUUUCCUCGAGCAA [C5G A13G A14U A33G] | ≤ 0.026
